# Source: PubChem BioAssay AID485344 (National Center for Advancing Translational Sciences (NCATS), 2010)
# Among all 340,000 compounds or so, about 6,900 (2%) were called active. No stated cut-off is given here; in the data, active means inhibition above about 30%; inactive means below that, where a call was filed. The entries are a selection whose mix differs from that of the whole data set. Entries without a call were filed so in the source.
# Target: D(2) dopamine receptor (Homo sapiens) (UniProt P14416)
# Assay: HTS Assay for Allosteric Antagonists of the Human D2 Dopamine Receptor: Primary Screen for Antagonists; further: 0% is about no effect
# Conditions: HEK293 TREx D2 cells, calcium flux, dopamine EC80; at 10 µM; stronger effect = higher value
# In short: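 HEK293 T-REx D2 cells, tet-induced, calcium dye no-wash. Cpd pintool add, 180 s kinetic, then EC80 DA, 180 s kinetic. Ca flux read.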
# Chain of UniProt P14416 (P14416 whole entry, looked up): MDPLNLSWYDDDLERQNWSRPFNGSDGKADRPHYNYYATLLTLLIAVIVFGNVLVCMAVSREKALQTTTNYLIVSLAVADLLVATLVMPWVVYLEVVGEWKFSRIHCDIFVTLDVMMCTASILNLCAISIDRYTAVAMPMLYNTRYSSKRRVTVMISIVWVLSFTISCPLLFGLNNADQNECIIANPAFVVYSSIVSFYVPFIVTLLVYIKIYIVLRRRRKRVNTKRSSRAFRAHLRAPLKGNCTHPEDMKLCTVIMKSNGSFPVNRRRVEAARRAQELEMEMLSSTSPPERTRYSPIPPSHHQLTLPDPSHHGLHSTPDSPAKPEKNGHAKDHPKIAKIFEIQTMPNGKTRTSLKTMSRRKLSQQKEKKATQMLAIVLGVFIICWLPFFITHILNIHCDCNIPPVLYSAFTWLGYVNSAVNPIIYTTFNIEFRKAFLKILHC
row,Structure (SMILES),inhibition
1,Cc1cc(C(=O)NCCCn2ccnc2)sc1-c1ccccc1,active: 47.3%
2,COc1ccc(NC(=O)Nc2nnc(-c3ccccc3F)s2)cc1,active: 41.3%
3,CC1CCN(c2nc3ccc(C(=O)NCCc4ccc(S(N)(=O)=O)cc4)cc3s2)CC1,9.32%
4,O=C(Cn1c(=O)oc2cc(S(=O)(=O)N3CCCCC3)ccc21)NCc1ccc(F)cc1,-1.65%
5,O=C(NCc1ccccc1Cl)c1nnc(Cc2ccc(Cl)cc2)o1,7.33%
6,Cc1cccc(CSc2ccc(-c3cccs3)nn2)c1,0.616%
7,COc1ccc(-c2nc(SCC(=O)NCCc3ccccc3)n[nH]2)cc1,-0.36%
8,COc1ccc(-c2noc(CSc3nnc(C)n3-c3ccc(C)c(C)c3)n2)c(OC)c1,-2.44%
9,Cc1ccc2onc(CC(=O)N3CCN(c4ccccc4)CC3)c2c1,12.1%
10,N#C/C(=C\c1cc(Br)c(O)c(Br)c1)c1nc2ccccc2c(=O)[nH]1,-6.39%
11,CCc1ccc(OCC(=O)Nc2ccc3c(c2)c2ccccc2n3CC)c(Br)c1,12.6%
12,CCOc1ccc(NC(=O)C(C)n2c(=O)cc(C)c3c(C)nn(-c4ccccc4)c32)cc1 (configuration not stated),11.4%
13,CCc1ccc(N(CC)C(=O)Cn2cnc3sc(C)c(S(=O)(=O)N4CCN(c5ncccn5)CC4)c3c2=O)cc1,-10.2%
14,Cc1ccc(C)c(OCC(=O)N(Cc2nnc(-c3ccccc3Cl)o2)C2CC2)c1,active: 33.4%
15,CCCOc1ccccc1C1C(C(=O)Nc2ccccc2)=C(C)Nc2nnnn21 (configuration not stated),26.1%
16,CCCC1=Nc2cc(C(=O)NCCOC)ccc2Sc2ccccc21,-5.24%
17,Cc1cccc(S(=O)(=O)c2cn(C)c3cc(N4CCC(C)CC4)c(F)cc3c2=O)c1,3.16%
18,C#CCNC(=O)/C=C/c1ccc(C)cc1,active: 39.7%
19,CC(=O)Nc1ccc(NC(=O)c2cc(-c3ccc4c(c3)OCCO4)on2)cc1,-11%
20,CCC(=O)N1c2ccc(S(=O)(=O)CCC(=O)NCc3cccc(OC)c3)cc2CC1C (configuration not stated),4.14%
21,COc1ccccc1CNC(=O)Cn1c(=O)nc(-c2ccccc2)c2ccccc21,3.76%
22,COc1ccc(-c2nc(CN3CCC(c4ccccc4)CC3)c(C)o2)cc1OC,active: 44.3%
23,CCCSc1nnc2c(n1)OC(c1cccs1)Nc1ccc(Br)cc1-2 (configuration not stated),4.57%
24,COC(=O)c1ccc(NC(=O)CN(Cc2ccccc2)S(=O)(=O)c2ccc(Cl)cc2)cc1,-24.2%

row,Structure (SMILES),inhibition
1,Oc1c(C(c2ccccc2F)N2CCCC2)sc2nc(-c3ccco3)nn12 (configuration not stated),-23.8%
2,Cc1c(Cl)cccc1NC(=O)Nc1ccc2snnc2c1,-6.12%
3,O=C(NCCc1ccccc1)c1ccc(CS(=O)(=O)c2ccc(Cl)cc2)o1,4.27%
4,CCN(C1CCCCC1)S(=O)(=O)c1ccc(S(=O)(=O)NCCc2ccncc2)cc1,active: 32.2%
5,COC(=O)c1ccc2c(=O)n(CCCCCC(=O)N3CCN(c4ccc(Cl)cc4)CC3)c(=O)[nH]c2c1,-7.89%
6,Cc1ccc(CCNC(=O)CCn2nc(-c3ccc(C)cc3)ccc2=O)cc1,-5.71%
7,CCN(CC)CCSc1nnc2c3cc(F)ccc3n(CC)c2n1,-0.733%
8,COc1cccc(C(=O)n2nc(-c3cccnc3)nc2NCc2ccc(F)cc2)c1,10.8%
9,COC(=O)c1ccc(CNC(=O)c2ccc(S(=O)(=O)N(C)c3ccccc3OC)cc2)cc1,active: 48.6%
10,Cc1ccc(NC(c2nnc(-c3ccccc3)o2)c2ccccc2F)c(Cl)c1 (configuration not stated),4.76%
11,COCC(=O)Nc1c(C(=O)Nc2ccc(C)cc2)oc2ccccc12,16.2%
12,CCOc1ccc(S(=O)(=O)N(CC(=O)Nc2ccc3c(c2)OCO3)c2ccc(C)cc2)cc1,4.2%
13,Cc1ccc2oc(-c3ccc(C)c(NC(=O)c4ccc(-c5ccccc5[N+](=O)[O-])o4)c3)nc2c1,-1.3%
14,CCn1cc(S(=O)(=O)c2ccc(Cl)cc2)c(=O)c2cc(F)c(N3CCOCC3)cc21,12.9%
15,Cc1ccc(CNC(=O)CN2C(=O)CCc3cc(S(=O)(=O)N4CCCCC4)ccc32)cc1,-4.09%
16,CCN(CC)S(=O)(=O)c1ccc(N2CCCCS2(=O)=O)cc1,17.5%
17,Cc1ccc2onc(CNC(=O)N3CCN(c4cccc(C(F)(F)F)c4)CC3)c2c1,-14.5%
18,CCOC(=O)c1ccc(-c2ccc(/C=C(\C#N)C(=O)Nc3ccc(C)cc3)o2)cc1,-3.29%
19,COc1cc(CN(C(=O)c2ccc(Cl)cc2)C2CCS(=O)(=O)C2)cc(OC)c1OC (configuration not stated),-12.8%
20,Cc1ccc(S(=O)(=O)C(CNC(=O)C(=O)NCc2ccc(Cl)cc2)c2ccco2)cc1 (configuration not stated),1.95%
21,CCOc1ccc(-n2c(=O)c3c(C)c(C(=O)N(C)C)sc3n(Cc3cc(C)ccc3C)c2=O)cc1,-1.12%
22,COc1ccc(C(CNC(=O)c2ccc(-c3ccccc3Cl)o2)N2CCOCC2)cc1 (configuration not stated),active: 66.4%
23,C/C=C(/C)C(=O)Nc1cccc(C2=NOC3(C2)C[C@@H](C(N)=O)N(C(=O)CC(c2ccccc2)c2ccccc2)C3)c1 (some centres not stated),active: 32%
